Source: patent publication US20230012428A1 (JIANGSU HENGRUI MEDICINE, published 2023)

Molecular target: T1, Human CD47-his (CD47-ECD-His) (human, UniProt Q08722 in part, limits assumed)
T1 construct: also called hCD47; free human CD47 protein
Assay: SPR (Biacore T200), binder captured on Protein A chip, antigen in flow

T1 sequence (Q08722 19-139 limits assumed): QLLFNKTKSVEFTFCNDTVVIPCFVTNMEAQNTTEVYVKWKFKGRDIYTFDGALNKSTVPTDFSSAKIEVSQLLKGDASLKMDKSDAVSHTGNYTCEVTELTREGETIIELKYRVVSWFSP

Binder | Kd [nM]
h1830-S22 (bispecific antibody, human IgG4 S228P, kappa, h1830 IgG4 with SIRPγ variant S22, GS16 linker) heavy: QVQLQESGPGLVKPSQTLSLTCTVSGGSISDGSAYWSWIRQHPGKGLEYIGFISRAGSTYNTPSLKGRVTISRDTSKNQFSLKLSSVTAADTAVYYCARSGGWLAPFDYWGRGTLVTVSSASTKGPSVFPLAPCSRSTSESTAALGCLVKDYFPEPVTVSWNSGALTSGVHTFPAVLQSSGLYSLSSVVTVPSSSLGTKTYTCNVDHKPSNTKVDKRV[human IgG4 Fc with S228P (EU numbers) not given here]GGGGSGGGGSGGGGGGEEELQMIQPEKLLLVTVGETATLHCTVTSLLPVGPVLWFRGVGPGRELIYISGRGHFPRVTTVSDLTKRNNMDFSIRISSITPADVGTYYCVKFRKGSPEDVEFKSGPGTEMALGAKPS light: DIVMTQSPDSLAVSLGERATINCKSSQSLFYHSNQKHSLAWYQQKPGQPPKLLIYGASTRESGVPDRFSGSGSGTDFTLTISSLQAEDVAVYYCQQYYGYPYTFGGGTKVEIKRTVAAPSVFIFPPSDEQLKSGTASVVCLLNNFYPREAKVQWKVDNALQSGNSQESVTEQDSKDSTYSLSSTLTLSKADYEKHKVYACEVTHQGLSSPVTKSFNRGEC | 6.3
h1830-S29 (bispecific antibody, human IgG4 S228P, kappa, h1830 IgG4 with SIRPγ variant S29, GS16 linker) heavy: QVQLQESGPGLVKPSQTLSLTCTVSGGSISDGSAYWSWIRQHPGKGLEYIGFISRAGSTYNTPSLKGRVTISRDTSKNQFSLKLSSVTAADTAVYYCARSGGWLAPFDYWGRGTLVTVSSASTKGPSVFPLAPCSRSTSESTAALGCLVKDYFPEPVTVSWNSGALTSGVHTFPAVLQSSGLYSLSSVVTVPSSSLGTKTYTCNVDHKPSNTKVDKRV[human IgG4 Fc with S228P (EU numbers) not given here]GGGGSGGGGSGGGGGGEEELQMIQPEKLLLVTVGETATLHCTVTSLLPVGPVLWFRGVGPGRELIYLSGRGHFPRVTTVSDLTKRNNMDFSIRISSITPADVGTYYCVKFRKGSPEDVEFKSGPGTEMALGAKPS light: DIVMTQSPDSLAVSLGERATINCKSSQSLFYHSNQKHSLAWYQQKPGQPPKLLIYGASTRESGVPDRFSGSGSGTDFTLTISSLQAEDVAVYYCQQYYGYPYTFGGGTKVEIKRTVAAPSVFIFPPSDEQLKSGTASVVCLLNNFYPREAKVQWKVDNALQSGNSQESVTEQDSKDSTYSLSSTLTLSKADYEKHKVYACEVTHQGLSSPVTKSFNRGEC | 4.59
h1830-S38 (bispecific antibody, human IgG4 S228P, kappa, h1830 IgG4 with SIRPγ variant S38, GS16 linker) heavy: QVQLQESGPGLVKPSQTLSLTCTVSGGSISDGSAYWSWIRQHPGKGLEYIGFISRAGSTYNTPSLKGRVTISRDTSKNQFSLKLSSVTAADTAVYYCARSGGWLAPFDYWGRGTLVTVSSASTKGPSVFPLAPCSRSTSESTAALGCLVKDYFPEPVTVSWNSGALTSGVHTFPAVLQSSGLYSLSSVVTVPSSSLGTKTYTCNVDHKPSNTKVDKRV[human IgG4 Fc with S228P (EU numbers) not given here]GGGGSGGGGSGGGGGGEEELQMIQPEKLLLVTVGETATLHCTVTSLLPVGPVLWFRGVGPGRELIYFSGRGHFPRVTTVSDLTKRNNMDFSIRISSITPADVGTYYCVKFRKGSPEDVEFKSGPGTEMALGAKPS light: DIVMTQSPDSLAVSLGERATINCKSSQSLFYHSNQKHSLAWYQQKPGQPPKLLIYGASTRESGVPDRFSGSGSGTDFTLTISSLQAEDVAVYYCQQYYGYPYTFGGGTKVEIKRTVAAPSVFIFPPSDEQLKSGTASVVCLLNNFYPREAKVQWKVDNALQSGNSQESVTEQDSKDSTYSLSSTLTLSKADYEKHKVYACEVTHQGLSSPVTKSFNRGEC | 10.2
h1830-S42 (bispecific antibody, human IgG4 S228P, kappa, h1830 IgG4 with SIRPγ variant S42, GS16 linker) heavy: QVQLQESGPGLVKPSQTLSLTCTVSGGSISDGSAYWSWIRQHPGKGLEYIGFISRAGSTYNTPSLKGRVTISRDTSKNQFSLKLSSVTAADTAVYYCARSGGWLAPFDYWGRGTLVTVSSASTKGPSVFPLAPCSRSTSESTAALGCLVKDYFPEPVTVSWNSGALTSGVHTFPAVLQSSGLYSLSSVVTVPSSSLGTKTYTCNVDHKPSNTKVDKRV[human IgG4 Fc with S228P (EU numbers) not given here]GGGGSGGGGSGGGGGGEEELQMIQPEKLLLVTVGETATLHCTVTSLLPVGPVLWFRGVGPGRELIYMSGRGHFPRVTTVSDLTKRNNIDFSIRISSITPADVGTYYCVKFRKGSPEDVEFKSGPGTEMALGAKPS light: DIVMTQSPDSLAVSLGERATINCKSSQSLFYHSNQKHSLAWYQQKPGQPPKLLIYGASTRESGVPDRFSGSGSGTDFTLTISSLQAEDVAVYYCQQYYGYPYTFGGGTKVEIKRTVAAPSVFIFPPSDEQLKSGTASVVCLLNNFYPREAKVQWKVDNALQSGNSQESVTEQDSKDSTYSLSSTLTLSKADYEKHKVYACEVTHQGLSSPVTKSFNRGEC | 4.19
h1830-S34 (bispecific antibody, human IgG4 S228P, kappa, h1830 IgG4 with SIRPγ variant S34, GS16 linker) heavy: QVQLQESGPGLVKPSQTLSLTCTVSGGSISDGSAYWSWIRQHPGKGLEYIGFISRAGSTYNTPSLKGRVTISRDTSKNQFSLKLSSVTAADTAVYYCARSGGWLAPFDYWGRGTLVTVSSASTKGPSVFPLAPCSRSTSESTAALGCLVKDYFPEPVTVSWNSGALTSGVHTFPAVLQSSGLYSLSSVVTVPSSSLGTKTYTCNVDHKPSNTKVDKRV[human IgG4 Fc with S228P (EU numbers) not given here]GGGGSGGGGSGGGGGGEEELQMIQPEKLLLVTVGETATLHCTVTSLLPVGPVLWFRGVGPGRELIYRSGRGHFPRVTTVSDLTKRNNMDFSIRISSITPADVGTYYCVKFRKGSPEDVEFKSGPGTEMALGAKPS light: DIVMTQSPDSLAVSLGERATINCKSSQSLFYHSNQKHSLAWYQQKPGQPPKLLIYGASTRESGVPDRFSGSGSGTDFTLTISSLQAEDVAVYYCQQYYGYPYTFGGGTKVEIKRTVAAPSVFIFPPSDEQLKSGTASVVCLLNNFYPREAKVQWKVDNALQSGNSQESVTEQDSKDSTYSLSSTLTLSKADYEKHKVYACEVTHQGLSSPVTKSFNRGEC | 2.6
h1830-S41 (bispecific antibody, human IgG4 S228P, kappa, h1830 IgG4 with SIRPγ variant S41, GS16 linker) heavy: QVQLQESGPGLVKPSQTLSLTCTVSGGSISDGSAYWSWIRQHPGKGLEYIGFISRAGSTYNTPSLKGRVTISRDTSKNQFSLKLSSVTAADTAVYYCARSGGWLAPFDYWGRGTLVTVSSASTKGPSVFPLAPCSRSTSESTAALGCLVKDYFPEPVTVSWNSGALTSGVHTFPAVLQSSGLYSLSSVVTVPSSSLGTKTYTCNVDHKPSNTKVDKRV[human IgG4 Fc with S228P (EU numbers) not given here]GGGGSGGGGSGGGGGGEEELQMIQPEKLLLVTVGETATLHCTVTSLLPVGPVLWFRGVGPGRELIYVSGRGHFPRVTTVSDLTKRNNMDFSIRISSITPADVGTYYCVKFRKGSPEDVEFKSGPGTEMALGAKPS light: DIVMTQSPDSLAVSLGERATINCKSSQSLFYHSNQKHSLAWYQQKPGQPPKLLIYGASTRESGVPDRFSGSGSGTDFTLTISSLQAEDVAVYYCQQYYGYPYTFGGGTKVEIKRTVAAPSVFIFPPSDEQLKSGTASVVCLLNNFYPREAKVQWKVDNALQSGNSQESVTEQDSKDSTYSLSSTLTLSKADYEKHKVYACEVTHQGLSSPVTKSFNRGEC | 5.05

Continued, values first:

Kd [nM] | Binder
2.99 | h1830-S44 (bispecific antibody, human IgG4 S228P, kappa, h1830 IgG4 with SIRPγ variant S44, GS16 linker) heavy: QVQLQESGPGLVKPSQTLSLTCTVSGGSISDGSAYWSWIRQHPGKGLEYIGFISRAGSTYNTPSLKGRVTISRDTSKNQFSLKLSSVTAADTAVYYCARSGGWLAPFDYWGRGTLVTVSSASTKGPSVFPLAPCSRSTSESTAALGCLVKDYFPEPVTVSWNSGALTSGVHTFPAVLQSSGLYSLSSVVTVPSSSLGTKTYTCNVDHKPSNTKVDKRV[human IgG4 Fc with S228P (EU numbers) not given here]GGGGSGGGGSGGGGGGEEELQMIQPEKLLLVTVGETATLHCTVTSLLPVGPVLWFRGVGPGRELIYMSGRGHFPRVTTVSDLTKRNNVDFSIRISSITPADVGTYYCVKFRKGSPEDVEFKSGPGTEMALGAKPS light: DIVMTQSPDSLAVSLGERATINCKSSQSLFYHSNQKHSLAWYQQKPGQPPKLLIYGASTRESGVPDRFSGSGSGTDFTLTISSLQAEDVAVYYCQQYYGYPYTFGGGTKVEIKRTVAAPSVFIFPPSDEQLKSGTASVVCLLNNFYPREAKVQWKVDNALQSGNSQESVTEQDSKDSTYSLSSTLTLSKADYEKHKVYACEVTHQGLSSPVTKSFNRGEC
2.13 | h1830-S43 (bispecific antibody, human IgG4 S228P, kappa, h1830 IgG4 with SIRPγ variant S43, GS16 linker) heavy: QVQLQESGPGLVKPSQTLSLTCTVSGGSISDGSAYWSWIRQHPGKGLEYIGFISRAGSTYNTPSLKGRVTISRDTSKNQFSLKLSSVTAADTAVYYCARSGGWLAPFDYWGRGTLVTVSSASTKGPSVFPLAPCSRSTSESTAALGCLVKDYFPEPVTVSWNSGALTSGVHTFPAVLQSSGLYSLSSVVTVPSSSLGTKTYTCNVDHKPSNTKVDKRV[human IgG4 Fc with S228P (EU numbers) not given here]GGGGSGGGGSGGGGGGEEELQMIQPEKLLLVTVGETATLHCTVTSLLPVGPVLWFRGVGPGRELIYMSGRGHFPRVTTVSDLTKRNNRDFSIRISSITPADVGTYYCVKFRKGSPEDVEFKSGPGTEMALGAKPS light: DIVMTQSPDSLAVSLGERATINCKSSQSLFYHSNQKHSLAWYQQKPGQPPKLLIYGASTRESGVPDRFSGSGSGTDFTLTISSLQAEDVAVYYCQQYYGYPYTFGGGTKVEIKRTVAAPSVFIFPPSDEQLKSGTASVVCLLNNFYPREAKVQWKVDNALQSGNSQESVTEQDSKDSTYSLSSTLTLSKADYEKHKVYACEVTHQGLSSPVTKSFNRGEC
4.85 | h1830-S45 (bispecific antibody, human IgG4 S228P, kappa, h1830 IgG4 with SIRPγ variant S45, GS16 linker) heavy: QVQLQESGPGLVKPSQTLSLTCTVSGGSISDGSAYWSWIRQHPGKGLEYIGFISRAGSTYNTPSLKGRVTISRDTSKNQFSLKLSSVTAADTAVYYCARSGGWLAPFDYWGRGTLVTVSSASTKGPSVFPLAPCSRSTSESTAALGCLVKDYFPEPVTVSWNSGALTSGVHTFPAVLQSSGLYSLSSVVTVPSSSLGTKTYTCNVDHKPSNTKVDKRV[human IgG4 Fc with S228P (EU numbers) not given here]GGGGSGGGGSGGGGGGEEELQMIQPEKLLLVTVGETATLHCTVTSLLPVGPVLWFRGVGPGRELIYMSGRGHFPRVTTVSDLTKRDNMDFSIRISSITPADVGTYYCVKFRKGSPEDVEFKSGPGTEMALGAKPS light: DIVMTQSPDSLAVSLGERATINCKSSQSLFYHSNQKHSLAWYQQKPGQPPKLLIYGASTRESGVPDRFSGSGSGTDFTLTISSLQAEDVAVYYCQQYYGYPYTFGGGTKVEIKRTVAAPSVFIFPPSDEQLKSGTASVVCLLNNFYPREAKVQWKVDNALQSGNSQESVTEQDSKDSTYSLSSTLTLSKADYEKHKVYACEVTHQGLSSPVTKSFNRGEC
